Test results published in paper PMC9574860, “Chemical Toolkit for PARK7: Potent, Selective, and High-Throughput” (Journal of Medicinal Chemistry, 2022).
About 400 (5.1%) of roughly 7,900 compounds showed an effect of 50% or more. The list shows a part of the results.

target: Parkinson's disease protein 7 (PARK7/DJ1) (human, UniProt Q99497); test: primary screen, percent inhibition; read as competition with a fluorescent probe by fluorescence polarization; higher = more effect of the substance; conditions: 100 µM
Sequence (Q99497 whole entry, looked up, the tested form may be a part): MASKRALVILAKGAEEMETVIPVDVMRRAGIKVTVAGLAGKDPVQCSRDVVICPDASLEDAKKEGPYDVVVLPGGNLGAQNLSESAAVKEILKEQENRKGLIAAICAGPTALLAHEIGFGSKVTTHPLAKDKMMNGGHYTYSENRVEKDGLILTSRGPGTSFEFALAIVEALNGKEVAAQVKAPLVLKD
In short: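 Covalent fragments at 100 μM final were incubated 2 h with 0.2 μM PARK7, then 20 nM probe JYQ-107 added for a further 2 h. Fluorescence polarization read at 480/520 nm; relative FP loss versus reference controls gave remaining enzyme activity.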

SMILES	Inhibition % [%]
C=CC(=O)N1CCC(C)(N2CCOCC2)CC1	10
COCCNC(=O)C(C#N)=Cc1cccc(O)c1	10.3
C=CC(=O)NC1CCCC2(CC2)C1 (stereo not drawn)	7.63
COc1cc(C=C(C#N)C(=O)NC(C)C)cc(OC)c1	11.4
O=C(CCl)Nc1ccccc1S(=O)(=O)C(F)F	6.1
C=CC(=O)Nc1ccc(C)cn1	0.151
CC(=O)N1c2ccc(C(=O)CCl)cc2CC1C (stereo not drawn)	5.96
C=CC(=O)NCc1nc2ccccc2c(=O)n1C	6.79
CN(Cc1ccc(Cl)c(Cl)c1)C(=O)CCl	43.3
CCCNC(=O)C(C#N)=Cc1ccc(N)nc1	14.7
CC(=O)N1CCC(NS(=O)(=O)C=Cc2ccccc2)CC1	9.02
C=CC(=O)NC1CC(c2cccc(Cl)c2)C1 (stereo not drawn)	5.96
Cc1ccc(C(=O)O)cc1B1OC(C)(C)C(C)(C)O1	9.09
O=C(c1ccccc1)N1CC(S(=O)(=O)F)C1	35.6
N#Cc1nc(Cl)sc1Cl	5.66
O=C(Nc1cccc(S(=O)(=O)F)c1)c1ccoc1C(F)(F)F	96.8
COc1cc(C=C(C#N)C(N)=O)cc(Cl)c1OC	-16.5
C=CC(=O)N1CC(N2CCn3c(C)nnc3C2)C1	9.24
O=C(CCl)NC12CC3CC(CC(C3)C1)C2	3.94
Clc1cc(Cl)cc(OCC2CO2)c1 (stereo not drawn)	9.31
CN(C)C(=O)Oc1cccc(-c2nnco2)c1	28.8
O=C(CCCl)NCc1ccccc1Cl	4.27
CC(CC(O)c1ccc(F)cc1)Nc1ccc(C#N)nc1 (stereo not drawn)	9.7
CC1(C)OB(c2ccc(Oc3ccccc3)cc2F)OC1(C)C	8.35
C=CC(=O)N1CC(C(C)C)c2ccccc21 (stereo not drawn)	5.57
C=CC(=O)Nc1ccc2c(c1)nc(C1CC1)n2C	28.8

SMILES	Inhibition % [%]
O=C(CCl)Nc1cccc(S(=O)(=O)N2CCCC2)c1	7.91
N#Cc1cc(C(=O)N[C@H]2CCO[C@@H]2c2cccnc2)c[nH]1	14.2
N#Cc1ncn(CC(=O)N2CCCC2)n1	5.17
O=C1CCC(=O)N1CC(=O)N1CCCc2ccccc21	10.8
N#Cc1c(Cl)nc2cc(Cl)ccn12	9.52
C=CCCCOc1cccc(B2OC(C)(C)C(C)(C)O2)c1	3.29
C=CC(=O)N1CCC(c2ncc(Cl)cn2)CC1	5.57
CC(=O)c1oc2ccccc2c1NC(=O)CCl	9.9
CN(Cc1ccc(Cl)s1)C(=O)CCl	30.4
O=S(=O)(OCC(F)(F)F)c1cccnc1	8.17
C=CC(=O)NCC(=O)N1CCCO1	4.97
C=CC(=O)N[C@@H]1C[C@H]2CC[C@@H]1O2 (racemic)	7.42
C=CC(=O)N(Cc1ccccn1)C1CC1	6.59
OB(O)c1ccccc1OCC1CC1	-2.75
Cc1cc(C=C(C#N)C(=O)NCC2CCCO2)ccc1F (stereo not drawn)	2.68
C=CC(=O)N1CCN(C(=O)c2c(F)cccc2F)CC1	6.23
C=CCNC(=O)C(C#N)=Cc1ccc(SC)cc1	11.7
C=CC(=O)Nc1ccc(F)c(F)c1	7.82
O=C(CCl)C1CCCCO1 (stereo not drawn)	94.5
C=CC(=O)N[C@@H]1CC(=O)N(C)[C@H]1c1cnn(C)c1C	12.7
O=S(=O)(F)c1ccc(N2CCc3ccc(F)cc32)nc1	8.42
Cc1ccn(S(=O)(=O)c2ccc(F)c(C)c2)n1	6.8
CC(NC(=O)CCl)c1ccc(Cl)cc1Cl (stereo not drawn)	6.87
N#CC1(CC2CO2)CC1 (stereo not drawn)	4.43
Cc1nc(S)nc(O)c1CCO	9.44
O=C(O)c1ccnc(S)c1	11.8

SMILES	Inhibition % [%]
O=C(CCl)N1c2ccccc2OCC1c1ccccc1 (stereo not drawn)	28.9
O=C(CCN1C(=O)CCC1=O)N1CCCCCCC1	1.96
C=CC(=O)NCc1ncc2c(n1)CCC2	10.9
Cc1ccc(NC(=O)CC2OCCCO2)cc1F	3.78
O=C(CCl)c1ccoc1	76.6
C=CC(=O)NCc1c(C)nc(C)nc1C	10.4
O=C(CCl)C1CCCN1C(=O)C(F)(F)F (stereo not drawn)	80.8
CC(=O)N(c1cc(C)cc(C)c1)C1C=CS(=O)(=O)C1 (stereo not drawn)	1.59
CC1CCCCC1Nc1nccc(C#N)n1 (stereo not drawn)	4.22
CN1CCC(n2c(S)nc3ccccc3c2=O)C1=O (stereo not drawn)	17.4
C=CC(=O)NC1CCN(c2nccs2)CC1	9.77
C=CC(=O)N1CCC2(CC1)CC2N(C)Cc1nccs1 (stereo not drawn)	2.97
COCCn1c(C)cc(C=C(C#N)C(=O)O)c1C	3.03
COc1ccc(Cl)cc1S(=O)(=O)n1ccnc1	8
N#Cc1cn(CCS)c(=O)[nH]c1=O	75.1
C=CC(=O)NC1CCC(N2CCCS2(=O)=O)CC1 (stereo not drawn)	5.22
N#Cc1nccn1Cc1ccc(F)cc1F	68.3
N#CC(=Cc1ccc(Cl)s1)C(N)=O	12.7
Cn1ncc2c(=O)[nH]c(S)nc21	4.52
O=C1CCN1c1cccc(O)c1	10.1
C=CC(=O)NC1CCSCC1	3.21
C=CC(=O)NCC1CCCC1(C)C (stereo not drawn)	13.6
SCc1coc(-c2ccccc2)n1	0.694
Cc1cccc(NC(=O)Cn2cnc(C#N)n2)c1C	2.38
CC1(C)OB(c2ccsc2C(F)(F)F)OC1(C)C	6.88
C=CC(=O)N1CCC(F)(F)C(C)C1 (stereo not drawn)	10.1

SMILES	Inhibition % [%]
C=CC(=O)NC1(c2ncc(Br)cn2)CCC1	0.851
C=CC(=O)NC1CC2(CCN(C)CC2)Oc2ccccc21 (stereo not drawn)	9.28
O=c1onc(-c2ncccn2)n1Cc1cccc(F)c1	7.68
C=CC(=O)Nc1cn(C)nc1C1CC1	10
CC(=O)c1ccc(N2CCN(C(=O)CCl)CC2)c(F)c1	11
C=CC(=O)N[C@@H]1CCO[C@@H](c2cccs2)C1 (racemic)	9.83
CCC1CN(C(=O)CN2CCSC2=O)CCO1 (stereo not drawn)	0.338
C=CC(=O)N1CCOc2c(C)cc(C)cc21	11.5
C=CC(=O)N1CCC2(CCOCC2)CC1	5.66
C=CC(=O)NC1CCN(c2ccccc2)C1 (stereo not drawn)	20.1
Cc1ccc(-n2cc(SC(=O)N(C)C)cn2)cc1	6.2
CC(Cc1cccs1)NC(=O)c1cccnc1S (stereo not drawn)	5.98
C=CC(=O)N(Cc1ccccc1)c1cnn(C)c1	29.9
C=CC(=O)Nc1ccc2c(c1)N(C(C)=O)CCS2	11.2
COc1ccc(S(=O)(=O)n2nc(C)cc2C)c(C)c1C	-0.469
CCOC(=O)c1ccc(NC(=O)CCl)cc1	56.5
N#Cc1nc2cc(N)ccc2s1	55.6
C=CC(=O)N1CCCC(c2nncn2C)C1 (stereo not drawn)	20.6
Sc1nccn2ccnc12	5.79
COc1ccc(C(C)C)cc1S(=O)(=O)n1nc(C)cc1C	3.48
O=S(=O)(C=Cc1ccccc1)NCc1ccco1	14.6
CCc1nc(Cl)cc(C#N)n1	7.01
C=CC(=O)N1CC(C2CS(=O)(=O)C2)C1	9.56
N#Cc1cccc(Oc2ccc(CCO)cc2)n1	24.6
C=CC(=O)NCC(c1ccsc1)N(C)C (stereo not drawn)	2.98
O=C(O)CCn1nc(-c2cccs2)oc1=O	3.57

SMILES	Inhibition % [%]
C=CC(=O)NC1CCCC12CCOCC2 (stereo not drawn)	10.3
CN(C)C(=O)Sc1cnn(-c2ccccc2F)c1	6.74
CC(C)c1ccccc1OCC1CO1 (stereo not drawn)	-4.39
CC(C)[C@H]1OCC[C@@H]1CNc1cccc(C#N)n1	5.45
O=C1CNC(=O)N1CCCCl	9.1
C=CC(=O)N1CCOCC1CC (stereo not drawn)	7.47
CC(C)Cn1c(N)c(C(=O)CCl)c(=O)[nH]c1=O	16.4
Cc1cc(NC(=O)CCl)n(-c2ccccc2F)n1.Cl	23.2
N#Cc1ccc(NC(=O)CCl)cc1Cl	29.1
O=C(CCl)N(Cc1ccco1)C1=CCCCC1	23.3
N#CC(C(N)=O)=C1CCCC1	8.77
Cc1cc(S(=O)(=O)n2ccnc2)c(Cl)cc1Cl	7.16
O=C(CCCCl)N1CCCCC1	2.86
CC(C)C(=O)Nc1ccc(CNC(=O)n2ccnc2)cc1	0.0136
OB(O)c1cc(F)ccc1OCc1ccccn1	6.52
C=CC(=O)NC1(c2nc(C)cs2)CCCC1	5.93
C=CC(=O)N1CCCc2c(NC(C)=O)cccc21	13.5
O=C1C(NC(=O)C2(O)CCC2)CN1c1ccccc1 (stereo not drawn)	6.49
C=CC(=O)NCc1noc2c1CCCC2	4.47
C=CC(=O)NC1(c2cccc(OC)c2)CC1	2.67
CN(C)C(=O)C(C)(C)NS(=O)(=O)C=Cc1ccccc1	6.17
C=CC(=O)N1CCC(c2ccc(OC)cc2)C1 (stereo not drawn)	6.39
